Results on 87 molecules are retold here after PubChem BioAssay AID463173 (ICCB-Longwood Screening Facility, Harvard Medical School, 2010).

Out of some 52,000 compounds screened, about 1,700 (3.3%) were called active. Cut-off read from the data, not from the text of the source: active = survival mostly below about 52% (no sharp cut-off); inactive = mostly above about 56%. The list shows a part of the results.

The assay has as its system Wild type. Nature of the assay: S. aureus survival, RN4220 and DeltatarO strains – OD600, teichoic acid synthesis inhibitors, primary screen (AID 463173). The conditions noted are these: S. aureus RN4220 wild type/DeltatarO growth, OD600, 18 h, active compounds read low, screened at 18.75 µg/mL (by protocol).
On to `CCOc1ccc2oc(=O)cc(CN3CCN(C(=O)c4ccc(F)cc4)CC3)c2c1`, for which the survival was inactive: 56%.

Regarding `CCNC(=O)CC1C(=O)N(c2cccc(OC)c2)C(=O)N1Cc1ccc(OC)c(OC)c1` (configuration not stated), the survival was inactive: 81%.

With `CCc1ccc(-c2nc(CS(=O)CC(=O)NCCc3ccc(Cl)cc3)c(C)o2)cc1` (configuration not stated), the survival is inactive: 63%.

On to `O=C1CCSC2(C(=O)N(Cc3ccc(F)cc3)c3ccccc32)N1c1ccc(F)c(F)c1` (configuration not stated), for which the survival is inactive: 68%.

Consider `Cc1nc2ncnn2c(C)c1CCC(=O)NCc1ccccc1Cl`, for which the survival was inactive: 69%.

With `O=S(=O)(Nc1cccc(-c2ccc(N3CCCCCC3)nn2)c1)c1cccc(F)c1`, the survival was inactive: 56%.

For `CCOc1ccccc1N(CC(=O)N1CCc2ccccc2C1)S(=O)(=O)c1ccccc1`, the survival is inactive: 57%.

With `N#CCn1cc(C(=O)C(F)(F)F)c2ccccc21`, the survival is inactive: 116%.

As to `Cc1c(C(=O)Nc2cccc(Cl)c2)oc2ccc(S(=O)(=O)N(C)C3CCCCC3)cc12`, the survival was inactive: 74%.

For the molecule `COC(=O)CCc1csc(N)n1`, the survival is inactive: 98%.

`COc1cccc(NC(=O)Cn2c(=O)n(-c3ccc(C)cc3)c(=O)c3ccc(C(=O)NCc4ccco4)cc32)c1`: the survival is inactive: 77%.

In the case of `CCC(Sc1nncn2c1cc1oc(C)cc12)C(=O)Nc1ccc(F)cc1` (configuration not stated), the survival is inactive: 73%.

With `CCc1cccc(NC(=O)C(c2ccccc2)N2Cc3ccccc3C2=O)c1` (configuration not stated), the survival is inactive: 72%.

On to `CCOCc1ccccc1Nc1ncnc2onc(-c3ccc(Cl)cc3)c12`, for which the survival was inactive: 125%.

`COc1cc(C)c(C)cc1S(=O)(=O)Nc1cccc(-c2ccc(N3CCOCC3)nn2)c1`: the survival is inactive: 85%.

As for `COc1ccc(CCNC(=O)C(=O)NCC(c2ccco2)S(=O)(=O)c2ccc(F)cc2)cc1` (configuration not stated), the survival was inactive: 72%.

As to `COCCn1c(=N)c(C(=O)NC(C)c2ccccc2)cc2c(=O)n3cc(C)ccc3nc21` (configuration not stated), the survival was inactive: 79%.

For `CC(C)(C)OC(=O)N1CCC(c2c(C(=O)NCCN3CCC(Cc4ccccc4)CC3)cnn2-c2ccc(F)cc2)CC1`, the survival was inactive: 60%.

Consider `CCC(C)NC(=O)CCc1c(C)nc2nc(-c3cc(OC)cc(OC)c3)nn2c1C` (configuration not stated), for which the survival was inactive: 80%.

Turning to `Cc1ccc(NC(=O)[C@@H](c2ccccc2)N2Cc3ccccc3C2=O)cc1`, the survival is inactive: 59%.

Consider `Cc1cccc(N2CCN(S(=O)(=O)c3cc(C(=O)Nc4ccccc4Cl)ccc3F)CC2)c1C`, for which the survival is inactive: 84%.

In the case of `CCc1ccccc1NC(=O)CSc1nnc2ccc3ccccc3n12`, the survival is inactive: 80%.

In the case of `COC(=O)c1cc2oc3ccccc3c2n1Cc1nc(-c2ccccc2C)oc1C`, the survival was inactive: 121%.

Turning to `O=C(CSCc1cc(=O)c2cc(F)ccc2[nH]1)Nc1ccccc1Cl`, the survival was inactive: 70%.

Regarding `COc1ccc(OC)c(CCNc2nc3ccccc3c3nc(-c4cccnc4)nn23)c1`, the survival was inactive: 127%.

For the molecule `Brc1ccc(-n2nc(-c3ccccc3)c3cnc4cc5c(cc4c32)OCO5)cc1`, the survival is inactive: 112%.

On to `CCC(C)(C)n1nnnc1C(c1ccccc1)N1CCc2ccccc2C1` (configuration not stated), for which the survival was inactive: 107%.

In the case of `Cc1ccc2[nH]c(CSc3nnc(NC(=O)c4ccc(Cl)cc4)s3)cc(=O)c2c1`, the survival is inactive: 71%.

Turning to `CCCN(CCC)C(=O)c1c2c(nc3ccccc13)C(=O)N(C1CCCCC1)C2`, the survival is inactive: 75%.

Consider `Cc1cc(S(=O)(=O)C(CNC(=O)COc2ccc(Cl)cc2)c2cccs2)ccc1F` (configuration not stated), for which the survival is inactive: 120%.

With `Cc1ccc(CCNC(=O)C2CCN(Cc3nc(-c4ccccc4C)oc3C)CC2)cc1`, the survival is inactive: 122%.

`CCc1ccc(OCC2c3cc(OC)c(OC)cc3CCN2C(=O)COc2ccccc2)cc1` (configuration not stated): the survival is inactive: 77%.

For the molecule `CCCN(C(=O)c1coc(=O)c2ccccc12)c1ccccc1C`, the survival was inactive: 75%.

Turning to `Cc1ccc(N2C(=O)CSC23C(=O)N(CC(=O)Nc2ccc(C(C)C)cc2)c2ccccc23)cc1C` (configuration not stated), the survival is inactive: 80%.

Consider `CCOc1ccc(NC(=O)Cn2cc(C(=O)c3ccco3)c3ccccc32)cc1`, for which the survival is inactive: 50%.

For the molecule `CCOc1ccc(CCNC(=O)c2cc3c(-c4ccc(OC)c(OC)c4)nn(C)c3s2)cc1OCC`, the survival was inactive: 83%.

In the case of `COc1ccc(NC(=O)CSc2nc(NS(=O)(=O)c3ccccc3)cc(=O)[nH]2)cc1`, the survival is inactive: 114%.

As to `CCn1c(=O)cc(OCC(=O)Nc2cc(Cl)c(OC)cc2OC)c2ccccc21`, the survival is inactive: 72%.

Consider `COc1ccc(-n2nc(C(=O)Nc3cccc(C)n3)c3c4ccccc4n(C)c3c2=O)cc1Cl`, for which the survival was inactive: 79%.

Turning to `O=C(Nc1cccnc1Cl)c1cc(-c2cccc(Cl)c2)on1`, the survival was inactive: 94%.

On to `CCOc1ccc(CCNC(=O)CCc2cn(Cc3ccc(F)cc3)c3ccccc23)cc1`, for which the survival is inactive: 87%.

On to `COc1cccc(NC(=O)C(Cc2ccccc2)NS(=O)(=O)c2ccc3c(c2)oc(=O)n3C)c1` (configuration not stated), for which the survival is inactive: 123%.

Turning to `Cc1coc2cc3oc(=O)c(CC(=O)NCCc4ccccc4)c(C)c3cc12`, the survival is inactive: 85%.

For `Cc1ccc(C)c(CN2C(=O)c3ccccc3S(=O)(=O)c3ccc(C(=O)N4CCCCC4)cc32)c1`, the survival is inactive: 81%.

As for `CC(C)n1c(=N)c(C(=O)NCc2ccccc2)cc2c(=O)n3ccccc3nc21`, the survival was inactive: 94%.

Turning to `COc1cc(NC(=O)c2cc(S(=O)(=O)N3CCc4ccccc43)cn2C)cc(OC)c1OC`, the survival is inactive: 82%.

On to `CC(=O)c1cccc(NC(=O)c2noc3c2CCCC3)c1`, for which the survival was inactive: 136%.

Consider `CCc1ccccc1N(C)C(=O)c1cc2c(=O)oc3ccccc3c2s1`, for which the survival is inactive: 66%.

On to `COc1ccc(OC)c(NC(=O)c2cnn(-c3ccc(C)cc3)c2C2CCNCC2)c1`, for which the survival is inactive: 101%.

Regarding `CC(C)CC(=O)Nc1c(C(=O)N2CCN(c3ccccc3)CC2)oc2ccccc12`, the survival was inactive: 96%.

Regarding `O=C(C1CCC1)N1CCc2cc(S(=O)(=O)NCc3ccc(F)cc3)ccc21`, the survival is inactive: 79%.

On to `COc1ccc(C)cc1NC(=O)N1CCCn2nc(C)cc21`, for which the survival was inactive: 75%.

Regarding `O=C(COc1ccccc1[N+](=O)[O-])N(Cc1ccco1)c1ccccn1`, the survival is inactive: 82%.

`COc1cc2c(=O)n(CCc3ccccc3)c(=O)n(CC(=O)Nc3ccccc3)c2cc1OC`: the survival was inactive: 120%.

In the case of `Cc1ccc(-c2c(C#N)c(SCC(=O)c3ccc(F)cc3)nc3c2CCCC3)o1`, the survival is inactive: 111%.

As for `COc1ccc(OC)c(NC(=O)/C=C/c2ccc(C)o2)c1`, the survival was inactive: 65%.

Turning to `CCOc1ccccc1NC(=O)Cn1c(=O)n(-c2cccc(C)c2)c(=O)c2c1c1cc(OC)ccc1n2C`, the survival was inactive: 76%.

With `COC(=O)c1ccccc1NC(=O)N1CCc2c(sc3c2CCCC3)C1c1ccc(F)cc1` (configuration not stated), the survival was inactive: 128%.

Consider `O=C(COc1ccccc1)NC1CC(=O)N(c2ccc3c(c2)OCCO3)C1` (configuration not stated), for which the survival is inactive: 74%.

For `O=C(Cn1c(=O)n(CC2CCC(C(=O)NCCc3ccccc3)CC2)c(=O)c2ccccc21)Nc1cccc(F)c1` (configuration not stated), the survival is inactive: 94%.

Regarding `COc1ccc(C2C=C(c3ccccc3)Nc3nc(NS(=O)(=O)c4ccc(Cl)cc4)nn32)cc1` (configuration not stated), the survival was active: 0%.

In the case of `COc1ccc(C(=O)Cn2c(=O)c(-c3cc(C)ccc3NC(C)=O)nc3ccccc32)cc1`, the survival is inactive: 89%.

On to `CC(=O)c1cc2c(cc1N/C(=N/S(=O)(=O)c1ccc(Br)cc1)c1ccccc1)OCO2`, for which the survival was inactive: 69%.

For the molecule `Cc1ccccc1Cn1c(CN2CCCC(C)C2)nc2c1c(=O)n(C)c(=O)n2C` (configuration not stated), the survival is inactive: 81%.

In the case of `O=C(Nc1ccc(S(=O)(=O)Nc2cccc(C(F)(F)F)c2)cc1)c1ccco1`, the survival was inactive: 114%.

Turning to `CCOc1ccc(C(=O)c2cn(CC(=O)Nc3ccc(Cl)cc3)c3cc4c(cc3c2=O)OCCO4)cc1`, the survival was inactive: 143%.

Turning to `CCc1cccc(C)c1NC(=O)c1cccc(C(=O)Nc2c(C)cccc2CC)c1`, the survival is inactive: 78%.

As to `Cc1ccc(C)c(N2CCN(C(=O)c3noc4c3CCCCC4)CC2)c1`, the survival was inactive: 124%.

For `O=C(O)c1ccc2nccnc2c1`, the survival was inactive: 110%.

Take `CCOc1ccc(C(=O)c2cn(CC(=O)Nc3ccc(F)c(F)c3)c3cc4c(cc3c2=O)OCCO4)cc1`: the survival was inactive: 126%.

On to `CCS/C(=C(\C#N)C(N)=O)c1ccc(-c2ccccc2)[nH]1`, for which the survival was inactive: 114%.

Consider `COc1cccc(NC(=O)CCc2nc(-c3cccs3)no2)c1`, for which the survival was inactive: 70%.

In the case of `CSc1ncc(Cl)c(C(=O)Nc2c(C(=O)c3ccc(C)c(F)c3)oc3ccccc23)n1`, the survival was inactive: 88%.

As to `CCC1CCCCN1C(=O)c1cc(Cl)ccc1OC` (configuration not stated), the survival was inactive: 112%.

`CCOc1ccc(C2C(=O)N(C3CCCCC3)CC(=O)N2CCC2=CCCCC2)cc1OC` (configuration not stated): the survival is inactive: 112%.

On to `Cn1c(=O)c(C2=NS(=O)(=O)c3ccccc3N2)c(O)c2ccccc21`, for which the survival was inactive: 107%.

Turning to `Cc1cc2[nH]c(=O)c(=O)[nH]c2cc1S(=O)(=O)Nc1ccc(OC(F)(F)F)cc1`, the survival is inactive: 60%.

As to `COc1cccc(CNC(=O)C(Cc2ccccc2)NS(=O)(=O)c2ccc3c(c2)oc(=O)n3C)c1` (configuration not stated), the survival was inactive: 84%.

As to `Cc1cccc(OC(=O)c2cc(-c3ccc4c(c3)OCCO4)on2)c1C`, the survival is active: -6%.

Regarding `Cc1cccc(NC(=O)c2ccc3nc(CCc4ccccc4)oc3c2)c1C`, the survival was inactive: 88%.

`Cc1cccc(N2CCN(c3ccc(NC(=O)c4ccccc4)cc3C(=O)O)CC2C)c1` (configuration not stated): the survival is inactive: 55%.

Regarding `Cc1ncc(CO)c2c1Oc1nc(-c3ccc(F)cc3)nc(SCc3ccc(F)cc3Cl)c1C2`, the survival is inactive: 89%.

For `O=C(NCc1ccc(F)cc1)c1ccc2c(c1)nc1n2CCCCC1`, the survival was inactive: 89%.

With `CCOc1ccccc1C(=O)Nc1ccc2nc3c(c(Nc4ccc(OC)c(OC)c4)c2c1)CCCC3`, the survival is inactive: 73%.

Regarding `CCOC(=O)c1ccc(NC(=O)CN2Cc3ccccc3C2=O)cc1`, the survival was inactive: 83%.

As for `COc1ccccc1C(=O)Nc1onc2c1CCCC2`, the survival was inactive: 70%.

Regarding `Cc1cc(Nc2cccc(Cl)c2)nc2ccc(NC(=O)c3cccc(N(C)C)c3)cc12`, the survival is inactive: 124%.
